Data on 55 molecules can be found in PubChem BioAssay AID463173 (ICCB-Longwood Screening Facility, Harvard Medical School, 2010).

Hit rate of the full screen: of about 52,000 compounds, about 4,300 (8.3%) were called active. No stated cut-off is given here; in the data, active means survival mostly below about 52% (no sharp cut-off); inactive means mostly above about 56%. The list shows a part of the results.

The experiment relates to DeltatarO mutant. Briefly: S. aureus survival, RN4220 and DeltatarO strains – OD600, teichoic acid synthesis inhibitors, primary screen (AID 463173). The settings on record: S. aureus RN4220 wild type/DeltatarO growth, OD600, 18 h, active compounds read low, screened at 18.75 µg/mL (by protocol).
Consider `COc1ccccc1NC(=O)c1sc(-c2ccc(Cl)cc2)cc1N`, for which the survival was inactive: 149%.
With `CC(c1nnnn1CCc1ccccc1)N1CCN(c2cccc(C(F)(F)F)c2)CC1` (stereo not given), the survival is inactive: 63%.
Then `CCN(CC)C(=O)c1sc2c(c1C)c(=O)n(Cc1ccccc1)c(=O)n2Cc1cc(C)ccc1C`, with inactive: 73%; and `COc1ccc(C)cc1NC(=O)c1sc2nc(-c3ccc(F)cc3)cn2c1C`, with inactive: 67%; and `COc1ccc2c(c1)c(CC(=O)Nc1cc(C)cc(C)c1)c(C)n2C(=O)c1ccc(Cl)cc1`, with inactive: 65%.
Then `CCN1C(=O)C2C(c3ccc(OC)cc3)NC(CC)(C(=O)OC)C2C1=O` (stereo not given), with inactive: 56%; and `CCS(=O)(=O)N1CCN(CC2CC3C=CC2C3)CC1` (stereo not given), with inactive: 81%; and `CCOc1ccccc1NC(=O)Cn1c(=O)n(-c2ccc(C)c(C)c2)c(=O)c2oc3ccccc3c21`, with inactive: 65%.
Take `O=C(Oc1ccccc1F)c1nc(SCc2ccccc2F)ncc1Cl`: the survival is inactive: 119%.
For `COc1ccccc1NC(=O)Cn1nc2c3cc(F)ccc3n(Cc3cccc(C)c3)cc-2c1=O` the value was active: -2%; for `Cc1ccc2oc(C(=O)Nc3ccc(S(=O)(=O)N4CCCCCC4)cc3)cc(=O)c2c1`, inactive: 70%; for `CCOC(=O)c1cc(C)n(CC2CCC(C(=O)Nc3ccc(OC)c(OC)c3)CC2)c1C` (stereo not given), inactive: 93%.
Then `CCc1ccc(NC(=O)c2sc(-n3nc(C)c(Cc4ccc5c(c4)OCO5)c3C)nc2C)cc1`, with inactive: 77%; and `Cc1cc(C)cc(NS(=O)(=O)c2c(C)nc3scc(C)n3c2=O)c1`, with inactive: 79%.
Regarding `CCN(Cc1ccccc1)C(=O)C1CCC(CNS(=O)(=O)c2ccc3c(c2)CCCC(=O)N3)CC1` (stereo not given), the survival was inactive: 112%.
For `Cc1ccc(C)c(NC(=O)c2cc(S(=O)(=O)N3CCN(c4cccc(Cl)c4)CC3)ccc2F)c1` the value was inactive: 77%; for `CCc1ccc(Nc2nc3c(S(=O)(=O)c4ccc(C)cc4)nnn3c3ccsc23)cc1`, inactive: 49%; for `Cc1ccc(S(=O)(=O)c2nnn3c2nc(N2CCCC(C)C2)c2cc(Cl)ccc23)cc1C` (stereo not given), inactive: 96%.
`Cc1ccc(NC(=O)Cn2c(=O)n(-c3ccccc3)c(=O)c3ccc(C(=O)NCc4ccc5c(c4)OCO5)cc32)cc1`: the survival is inactive: 114%.
For `CCN(C(=O)Cn1cc(S(=O)(=O)N2CCN(c3ccccc3F)CC2)c2ccccc2c1=O)c1ccc(C)c(C)c1` the value was inactive: 119%; for `Oc1c(C(c2ccccc2Cl)N2CCC(O)CC2)sc2nc(-c3ccco3)nn12` (stereo not given), inactive: 95%; for `O=C(Nc1ccccc1C(F)(F)F)c1noc2c1CCCC2`, inactive: 63%.
For `Cc1ccc(-c2nnn(CC(=O)Nc3cccc4cccnc34)n2)o1`, the survival is inactive: 86%.
With `COc1ccc(Nc2ncc3c(n2)CCN(Cc2cccc(F)c2F)C3)c(OC)c1`, the survival was inactive: 83%.
In the case of `Cc1ccc2nc(-c3cccc(NC(=O)CSc4ccc(Cl)cc4)c3)oc2c1`, the survival is inactive: 56%.
Then `CC(=O)N1CCCc2cc(S(=O)(=O)NCc3ccccc3Cl)ccc21`, with inactive: 112%.
Regarding `Cc1ccc(CN2c3ccccc3-c3nc(SCC(=O)NCCc4ccccc4)ncc3S2(=O)=O)cc1`, the survival is inactive: 55%.
`CCOC(=O)c1cccc(NC(=O)CSc2cc(=O)n(C)c3ccccc23)c1`: the survival was inactive: 96%.
As for `CCN(CC)CCNC(=O)c1ccc(-c2nc(CN3CCc4ccccc43)c(C)o2)cc1`, the survival was inactive: 73%.
Then `O=C(Nc1ccc(C(F)(F)F)cc1)c1cc(S(=O)(=O)N2CCCc3ccccc32)ccc1F`, with inactive: 101%; and `CCOc1ccc(S(=O)(=O)NCc2ccc3c(c2)CCN3C(=O)c2ccc(C)cc2)cc1`, with inactive: 78%; and `Cc1ccc(NCc2cc3cc4c(cc3n(CC(=O)Nc3ccc(F)cc3F)c2=O)OCCO4)cc1`, with inactive: 70%.
For `Cc1nnc2c3ccccc3nc(Nc3ccccc3C(=O)O)n12` the value was inactive: 78%; for `COc1ccc(S(=O)(=O)Nc2cc(-c3cn4ccc(C)cc4n3)ccc2C)cc1OC`, inactive: 62%; for `CCn1ccc2cc(S(=O)(=O)N3CCC(C(=O)NCC(C)c4ccccc4)CC3)ccc21` (stereo not given), inactive: 94%.
Take `O=C(COc1ccc(Cl)cc1)Nc1ccc2nc(SCC(=O)N3CCOCC3)sc2c1`: the survival is inactive: 84%.
For `Cc1ccc(NC(=O)CSc2nc3ccccc3nc2Cc2ccccc2)c(Cl)c1` the value was inactive: 99%; for `Cc1ccc(Cl)cc1NC(=O)c1nnn(Cc2ccccc2)c1N`, inactive: 80%.
Turning to `Cc1ccc(-n2ncc(C(=O)NCc3ccccn3)c2C2CCN(C(=O)OC(C)(C)C)CC2)cc1C`, the survival is inactive: 102%.
For `COc1cccc(CNC(=O)C2CCN(Cc3cc4ccccc4n3Cc3ccccc3)CC2)c1OC`, the survival was inactive: 76%.
As for `CCCOc1ccc(NC(=O)CC2C(=O)N(c3ccc(OC)cc3)C(=O)N2CCc2ccncc2)cc1` (stereo not given), the survival is inactive: 98%.
`CCc1nc2ccccc2n1CCCCOc1cccc(C)c1`: the survival is active: -2%.
Then `COc1ccc(C2/C(=C(/O)c3ccccc3)C(=O)C(=O)N2CC(OC)OC)c(OC)c1` (stereo not given), with inactive: 78%; and `CC(C)CC(=O)NCC(c1ccc2c(c1)OCO2)N1CCN(c2ccc(F)cc2)CC1` (stereo not given), with inactive: 124%; and `Cc1ccc(/C(C#N)=C\c2cc(C)n(C)c2C)cc1`, with inactive: 81%.
For `CCOC(=O)c1ccc(Oc2nc(C)nc3c2oc2ccccc23)cc1` the value was inactive: 63%; for `O=C(/C=C/c1ccccc1)Nc1nc2n(n1)C(c1ccc(Cl)cc1)C=C(c1ccccc1)N2` (stereo not given), active: 38%; for `Clc1ccc(CN2CCc3nc(N4CCN(c5ccccn5)CC4)ncc3C2)cc1`, inactive: 86%.
As to `CC(=O)N1C(=O)NC(=O)C1(C)C`, the survival is inactive: 92%.
Consider `O=C(CN1C(=O)C2(SCC(=O)N2c2cccc(F)c2)c2ccccc21)NCc1ccccc1Cl` (stereo not given), for which the survival was inactive: 67%.
For the molecule `Cc1ccc2ncc(C(=O)NCCc3ccc(S(N)(=O)=O)cc3)c(=O)n2c1`, the survival is inactive: 102%.
For `O=C1CCC(=O)N1c1ccccc1` the value was inactive: 98%; for `Cc1cc2cc(C#N)c(N3CCOCC3)nc2cc1Cl`, inactive: 77%.
With `COc1ccc(CCNC(=O)CCCn2c(=O)c3ccccc3n(Cc3ccc(C)cc3)c2=O)cc1OC`, the survival is inactive: 81%.
For `COc1ccc(C)cc1NC(=O)COCc1cc(-c2cccs2)on1` the value was inactive: 69%.
